According to PubChem BioAssay AID1508623 (National Center for Advancing Translational Sciences (NCATS), 2021):
Screen size: about 48,000 compounds; about 450 (0.94%) were called active. Inconclusive results (about 19%) are left out. The call rests on the fitted dose curve; in most records, active means well fitted inhibition curve with a large enough effect; inconclusive means small, poorly fitted or top-dose-only effect; inactive means no such curve, though single readings can be large or run the other way. This is one part of the list.

experiment: Primary qHTS for Identification of Small Molecule Inhibitors of Huntingtin Promoter Activity; conditions: HEK293 HTT promoter firefly luciferase reporter (activity 0% = vehicle and -100% = no light), 24 h; series mostly up to 57.5 µM; activity change, negative = inhibition: at the top concentration; further: nearly all actives have a fitted effect of over 50% in size
In short: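 HEK293 Fluc reporter, 2,500 cells/well, 24 h pre-culture; cpds up to 57.5 uM final, 24 h 37 degrees C; Dual-Glo, 10 min RT; normalized vehicle = 0%, zero RLU = -100%.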

Activity change, negative = inhibition, inactive:
Cc1nn(Cc2noc(C(=O)NCc3ccc(F)cc3)n2)c(C)c1Br -13.9%, O=C(NCCc1ccccc1)c1ccc2c(c1)N(Cc1ccccc1Cl)C(=O)c1ccccc1S2 6.33%, COc1ccc(-c2nc3scc(CCNS(=O)(=O)c4ccc(F)cc4F)n3n2)cc1OC -23.2%, CC(C)NC(=O)Nc1ccc2c(c1)N(C)C(=O)c1ccccc1S2 0.23%, CCOC(=O)c1cccc(NC(=O)CSc2ncc3c(n2)-c2ccccc2N(C)S3(=O)=O)c1 -14.8%, COc1ccccc1CNC(=O)C(Cc1ccccc1)NS(=O)(=O)c1ccc2c(c1)oc(=O)n2C (stereo not given) -24.2%, CCOc1ccc(CC(=O)Nc2ccc3nc(N4CCCCC4)cc(C)c3c2)cc1OCC -8.07%, CCc1nnc(NC(=O)CSc2nc3c([nH]c4ccccc43)c(=O)n2-c2cc(C)cc(C)c2)s1 3.91%, Clc1cccc(CNc2ncnc3c2nc2n3CCCC2)c1 -7.81%, Cc1nnc(SCc2cc(=O)n3c(C)cccc3n2)s1 46%, CCOc1ccc(Cn2c(=O)oc3ccccc32)cc1 8.42%, Cc1ccc(-c2noc(COc3ccc(Br)c(C)c3)n2)cc1 -18.9%, O=C1C(=O)c2ccccc2C(O)=C1C1CCC(c2ccc(Cl)cc2)CC1 (stereo not given) -3.08%, O=C(Cn1c(=O)n(Cc2ccc3c(c2)OCO3)c(=O)c2ccccc21)Nc1cccc(Cl)c1 -21%, NS(=O)(=O)c1ccc(NC(=O)CCn2c(=O)oc3ccccc32)cc1 -9.97%, Cn1c(=O)oc2cc(S(=O)(=O)CCC(=O)NCc3ccccc3)ccc21 -10% [at 11.5 µM], CCOc1ccc(N(C)S(=O)(=O)c2ccc3c(c2)C(C)(C)C(=O)N3C)cc1 -10.4%, CCOc1ccc(N2CC(c3nc(-c4cc(OC)c(OC)c(OC)c4)no3)CC2=O)cc1 (stereo not given) 0%, Cc1ccc(-n2nnc3c(sc4nc(C)c(C)cc43)c2=O)cc1Cl 2.46%, Cc1ccc(C)c(NC(=O)C2CCCN(S(=O)(=O)c3c(C)noc3/C=C/N(C)C)C2)c1 (stereo not given) -14.1%, CCOC(=O)c1c(C)oc2nc(C)nc(NCC3CCN(Cc4ccc(Cl)cc4)CC3)c12 -8.04%, CCN(c1ccccc1)S(=O)(=O)c1nnc(NC(=O)COc2ccc(OC)cc2)s1 -9.55%, O=C1C(CCC(O)c2ccc(F)cc2)C(c2ccc(O)cc2)N1c1ccc(F)cc1 (stereo not given) -28.2%, COCCNC(=O)C1CCN(S(=O)(=O)c2ccc3c(c2)CCCN3C(C)=O)CC1 -4.57%, COc1ccc(-c2nc3n(n2)C(c2ccc(OC)cc2)C(C(=O)Nc2cccnc2)=C(C)N3)cc1 (stereo not given) -21.7%, CCOC(=O)c1[nH]c(C)c(CCC(=O)N2CCN(c3ccccc3)CC2)c1C -10.3%, CC1=C(c2ccc(C)c(C)c2)S(=O)(=O)N=C1N1CCN(c2cccc(C(F)(F)F)c2)CC1 -10%, Cc1ccc(NC(=O)Cn2c(=O)n(-c3ccc(CC(=O)NCC4CCCO4)cc3)c(=O)c3ccccc32)cc1 (stereo not given) -3.8%, CCOc1ccc(-n2c(=O)c3c4c(sc3n(Cc3cccc(Cl)c3)c2=O)CCCC4)cc1 -4.65%, CCCC(=O)N(c1ccc2oc(-c3ccccc3)c(C(=O)OCC)c2c1)S(=O)(=O)c1ccc(C)cc1 -1.62%, COCCCNC(=O)Cn1c(=O)n(CCCC(=O)NCc2ccc(C)cc2)c(=O)c2ccccc21 -5.04%, O=C(NCC(c1ccc2c(c1)OCO2)N1CCOCC1)c1ccc(F)cc1 (stereo not given) -7.55%, Cc1ccc(/C=C(\C#N)c2nc(-c3cc4c(ccc5ccccc54)oc3=O)cs2)cc1 -14.4%, CCn1cc(C(=O)N2CCN(c3ccccc3OC)CC2)c(=O)c2cc(S(=O)(=O)N3CCCCC3)ccc21 -26.4% [at 11.5 µM], Cc1cccc(C(=O)Nc2ccccc2-c2nc(-c3ccccc3)no2)c1 9.87%, O=C(CCSCc1ccccc1F)N1CCN(c2ccc(F)cc2)CC1 -6.72%, Cn1cc(C(=O)NCc2ccc(F)cc2)c(=O)c2cc(S(=O)(=O)N3CCCCC3)ccc21 -19.4% [at 11.5 µM], CCOc1ccccc1NC(=O)Cn1c(=O)n(Cc2ccc(C(=O)NCCCOC)cc2)c(=O)c2ccccc21 -3.68%, COc1cc(OC)c(NC(=O)c2oc3ccc4c(c3c2C)C(=O)CC(C)(C)O4)cc1Cl -3.85%, O=C(O)c1cccc(NC(=O)c2cccc(S(=O)(=O)Nc3cccc(C(=O)O)c3)c2)c1 -3.2%, CCn1c(=O)c2cc(C(=O)N(C)c3cc(C)ccc3C)sc2c2ccccc21 -11.8%, CC(C)c1ccc(Nc2nc3ccc(C(=O)c4ccccc4)cc3n3cnnc23)cc1 -35.4%, CCN(C(=O)c1sc2nc3n(c(=O)c2c1C)CCCCC3)c1ccccc1F -6.87%, Cc1ccc(NC(=O)Nc2nnc(N3CCCCC3)s2)c(C)c1 -0.353%, CCc1ccc(CNC(=O)c2cc3c(=O)oc4ccc(C)cc4c3s2)cc1 -6.01%, COc1ccc(NC(=O)c2ccc3snnc3c2)cc1OC 9.94%, CN(C)C(=O)c1ccc(S(=O)(=O)NCc2ccccc2Cl)s1 -11.9%, COc1cc(OC)cc(-n2c(=O)[nH]c3cc(C(=O)NCCc4ccc(C)cc4)ccc3c2=O)c1 -15%, COc1ccc(-n2cc3c(c2-c2cccc(Br)c2)c(=O)n(C)c(=O)n3C)cc1OC 3.42%, COc1ccc(-c2cc(C(F)(F)F)nc(SCC(=O)NCc3ccc(F)cc3)n2)cc1 -0.473%, COc1cccc(NC(=O)Cn2c(=O)n(Cc3ccccc3)c(=O)c3c4c(sc32)CN(C(C)=O)CC4)c1 -4.1%, COC(=O)c1ccccc1NC(=O)c1nc(SCc2ccccc2C)ncc1Cl -13.5%, O=c1c2oc3ccccc3c2n(Cc2ccccc2F)c(=O)n1Cc1ccco1 -12.2%, Cc1c(CNCCCc2ccccc2)c(C(=O)O)c(C)n1Cc1ccc(Cl)cc1 -25.2%, Cc1cc(=O)[nH]c2nnc(SCc3cccc(F)c3)n12 -15.3%, CCOC(=O)NNc1nncc2ccccc12 12.8%, COc1ccc(S(=O)(=O)NC2(C(F)(F)F)NC(=O)N(CCc3ccccc3)C2=O)cc1 (stereo not given) 2.68%, Cc1ccccc1NC(=O)Nc1nnc(N(C)Cc2ccccc2)s1 -14.4%, Cc1c(Cl)cccc1N1CC(c2nc3ccccc3n2Cc2ccccc2F)CC1=O (stereo not given) 5.77%, Oc1ccccc1-c1nc(/C=C/c2ccc(F)cc2)no1 33.3%, Cc1cccc(NC(=O)Cn2c(=O)n(Cc3ccc4c(c3)OCO4)c(=O)c3ccccc32)c1 -17%, Cc1[nH]c2ccccc2c1CCNCc1ccc(C=CC(=O)NO)cc1 266%, Cc1cc(=O)[nH]c(SCC(=O)N2CCN(c3ccccc3)CC2)n1 -12.1%, COc1ccc(-c2nc3ccc(C(=O)NCc4ccc(C)cc4)cc3nc2-c2ccc(OC)cc2)cc1 -3.48%, COc1ccc(Cl)cc1-n1c(CCC(=O)O)ccc1-c1ccc(C)cc1 55.1%, COc1ccc(NC(=O)c2oc3ccccc3c2NC(=O)Cc2ccc(F)cc2)c(OC)c1 -16.3%, CCC(=O)N1CCc2cc(CNS(=O)(=O)c3cc(Cl)ccc3OC)ccc21 -2.01%, COc1ccc(Br)cc1CNC(=O)CCSCc1ccc(Cl)cc1 -14.2%, Cc1nn(CC(=O)N2CCN(c3ccccc3)CC2)c(=O)c2cc3sccc3n12 6.83%, CCN1CCN(c2cc(C)c3cc(NC(=O)c4cc(OC)cc(OC)c4)ccc3n2)CC1 50.3%, Cc1c(C(=O)Nc2cccc(Cl)c2)oc2ccc(S(=O)(=O)N3CCOCC3)cc12 -4.7%, CCC(C)NC(=O)Cn1cnc2sc(C)c(S(=O)(=O)N3CCN(c4ccccc4OC)CC3)c2c1=O (stereo not given) -6.29%, COc1cccc(NC(=O)N2CCC(CN3CCOCC3)CC2)c1 -4.64%, CCc1ccccc1NC(=O)Cn1c(=O)ccc2cc(S(=O)(=O)N3CCC(C)CC3)ccc21 -28.8%, Cc1cccc(N2CCN(S(=O)(=O)c3c(C)nc4scc(C)n4c3=O)CC2C)c1 (stereo not given) -19.8%, Cc1ccc(CCNC(=O)CN2N=C(c3ccc(C)cc3)CCC2=O)cc1 -17.5%, CC1CCN(C(=O)c2ccc(NC(=O)c3nsc4ccccc34)cc2)CC1 -13.6%, CCOC(=O)c1sc(NC(=O)c2nc3nc(C)cc(C(F)F)n3n2)c(C(=O)OC)c1C -0.979%, CCOc1cccc(C2c3c(oc4cc(C)c(C)cc4c3=O)C(=O)N2c2nc(C)c(C)s2)c1 (stereo not given) -6.52%, Cn1nc(C(=O)Nc2ccccc2C#N)c2c1-c1ccccc1SC2 -10.2%, CCOc1ccc(Nc2oc(/C=C/c3cc(OC)c(OC)c(OC)c3)nc2C#N)cc1 -4.16%, COc1ccc(NC(=O)CN(C)S(=O)(=O)c2cnc[nH]2)cc1 -5.74%, CCOc1ccc(NC(=O)CSc2nc3ccccc3c(=O)n2CCC(=O)NC2CCCCC2)cc1 -14.3%, O=C(COC(=O)c1cc(-c2cccs2)nc2ccccc12)c1ccc(Cl)cc1 -8.99%, COc1cc(C(=O)NCCSc2c(C)[nH]c3ccccc23)cc(OC)c1OC -9.54%, O=C(NC1CC(=O)N(c2ccc(Cl)cc2)C1)C1CCCCC1 (stereo not given) -3.03%, COc1ccc(-c2noc(C3CC(=O)N(c4ccc5c(c4)OCCO5)C3)n2)c(OC)c1 (stereo not given) 0%, O=C(O)CSc1nc2ccccc2nc1N1CCCCC1 -19%, COC(=O)c1c(NC(=O)/C(C#N)=C/c2ccc(OC)cc2)sc2c1C(C(=O)OC)CC2 (stereo not given) 1.96%, CCc1ccccc1NC(=O)[C@H](Cc1ccccc1)N1Cc2ccccc2C1=O -2.67%, CCOc1ccc(NC(=O)c2oc3ccccc3c2NC(=O)C(C)Oc2ccccc2)cc1 (stereo not given) -26.3%, Cc1cccc(C)c1NC(=O)CSc1nccn1C -16.5%, Cc1ccc(C)c(CN2C(=O)c3ccccc3S(=O)(=O)c3ccc(C(=O)N4CCN(Cc5ccccc5)CC4)cc32)c1 7.63%, CC(=O)c1cc2c(cc1N/C(=N/S(=O)(=O)c1ccc(C)cc1)c1ccc(Cl)cc1)OCO2 -9.17%, O=C(CCn1c(=O)c2cccn2c2cccnc21)NCc1cccc(Br)c1 2.5%
